Results published in the supplement of paper PMC3334620.
The full ranking holds about 33,000 sequences; the median of “E-score (-0.5 to 0.5)” is about -0.011, and the highest 2% start at about 0.28. The list shows a part of the results.

The sequences below were run against T1, Gcr1 (UniProt P07261) (assay: PBM E-score (8-mer binding enrichment) (E-score (-0.5 to 0.5)); higher = stronger / more preferred TF binding; most listed sequences are background and not binding sites). Details: protein concentration: 100 nM; construct: GST-full length.
T1 sequence: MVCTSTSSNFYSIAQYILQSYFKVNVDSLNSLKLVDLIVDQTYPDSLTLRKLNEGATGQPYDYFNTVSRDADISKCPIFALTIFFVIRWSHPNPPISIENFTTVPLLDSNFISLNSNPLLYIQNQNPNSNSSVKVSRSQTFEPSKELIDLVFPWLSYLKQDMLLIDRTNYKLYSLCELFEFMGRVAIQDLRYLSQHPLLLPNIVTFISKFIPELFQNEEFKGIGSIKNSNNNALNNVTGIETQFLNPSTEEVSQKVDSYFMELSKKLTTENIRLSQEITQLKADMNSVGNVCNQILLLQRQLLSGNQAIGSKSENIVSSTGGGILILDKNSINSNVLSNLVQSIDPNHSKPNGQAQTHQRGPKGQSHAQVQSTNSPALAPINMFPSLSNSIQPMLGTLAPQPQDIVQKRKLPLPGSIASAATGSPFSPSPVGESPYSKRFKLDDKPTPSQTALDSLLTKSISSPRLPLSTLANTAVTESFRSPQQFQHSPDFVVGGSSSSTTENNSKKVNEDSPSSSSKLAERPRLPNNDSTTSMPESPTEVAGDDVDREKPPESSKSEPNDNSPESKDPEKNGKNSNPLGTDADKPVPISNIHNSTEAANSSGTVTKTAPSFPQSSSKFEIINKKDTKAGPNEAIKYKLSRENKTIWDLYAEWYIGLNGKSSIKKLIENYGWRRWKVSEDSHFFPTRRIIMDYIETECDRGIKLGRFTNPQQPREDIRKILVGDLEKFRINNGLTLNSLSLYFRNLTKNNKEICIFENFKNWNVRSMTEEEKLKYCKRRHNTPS
How it was run: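 GST-tagged yeast TFs (full-length or DNA-binding domain) were made by PURExpress in vitro transcription/translation and applied at about 100-200 nM to universal all-10-mer Agilent arrays. The arrays were made double-stranded by primer extension, on fresh or once-stripped slides. Bound protein was detected with fluorescent anti-GST, and scans were normalised with masliner. Each ungapped eight-base word, pooled with its reverse complement, received an E-score (modified Wilcoxon-Mann-Whitney statistic) from the Universal PBM Analysis Suite.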

| Sequence | PBM E-score |
| --- | --- |
| CGTAGGTA | -0.0658 |
| CCCAATCA | 0.108 |
| ATGTGACA | -0.117 |
| CTATCGCA | 0.0478 |
| GCCTTGTA | 0.0885 |
| CCGGCACC | 0.28 |
| CACGCGCG | -0.138 |
| CTTATGCC | -0.184 |
| GCAAGGGC | -0.192 |
| ATCGATTG | -0.0409 |
| AACGCCAG | -0.0702 |
| CATGCCTA | -0.112 |
| CCCTCGCC | -0.083 |
| TTGCCAAA | -0.0737 |
| TACAAACA | 0.145 |
| AACCCTGA | 0.115 |
| CCGCTTAC | -0.0217 |
| GAACATGA | -0.0345 |
| CGAAATTA | 0.0526 |
| ACAAGAAG | 0.415 |
| ATAAGAGG | 0.145 |
| GTGGCAGA | -0.115 |

| Sequence | PBM E-score |
| --- | --- |
| ATGTGCCG | -0.205 |
| CATCCCGG | -0.0358 |
| ACCTGTAG | 0.135 |
| AACAGCCT | -0.216 |
| ATCCTGAC | 0.163 |
| ACGTTATC | -0.0893 |
| AGCACTGA | -0.155 |
| GCCACCGA | -0.074 |
| AGACCGAC | -0.083 |
| ACATATGC | -0.148 |
| CGAGTATA | -0.0511 |
| TCTTGCAA | -0.0678 |
| ATATTTTA | 0.207 |
| CGCTAACA | -0.096 |
| TGGAGTAA | 0.0362 |
| CGAAATCC | 0.182 |
| CCCAGGGA | -0.057 |
| AGTTTATA | 0.0439 |
| CCCATAAC | 0.0573 |
| AGGTAAAG | -0.112 |
| AATTACTG | -0.0404 |
| ACTGCGCA | 0.0776 |

| Sequence | PBM E-score |
| --- | --- |
| ACAGTTGA | 0.00324 |
| CATGGACC | 0.073 |
| ACCCCATC | -0.0183 |
| ATCAGTAG | -0.124 |
| ATCCGACC | -0.129 |
| ACTTGCGA | -0.0439 |
| AAGTATAT | -0.0728 |
| CCGGACCA | -0.125 |
| ACAAGCCC | -0.28 |
| AAACGTGC | 0.153 |
| CGAATTAA | 0.151 |
| AGCTTCCG | 0.433 |
| CCATGTCG | -0.0768 |
| ATGGCGTC | 0.319 |
| GTATACAC | -0.08 |
| CCTGAACC | -0.0942 |
| ACAGGCAT | 0.241 |
| AGGATCGA | -0.12 |
| AGCCGGAG | 0.273 |
| AGCAAGCG | -0.13 |
| CCTTGGAC | -0.101 |
| GGGGACAC | -0.105 |

| Sequence | PBM E-score |
| --- | --- |
| CTTAGTGC | 0.0733 |
| GAAGGCAC | 0.0664 |
| CCATGTCA | -0.0858 |
| GGCAGCCC | 0.324 |
| TGTCCAAA | 0.0386 |
| AAGACCTT | -0.268 |
| GTGTCCGA | 0.116 |
| ATTCCGTC | 0.0616 |
| GTTGCGCA | 0.0108 |
| CTTGGAAA | -0.139 |
| GCTTGTCC | -0.135 |
| ACCAGCCT | 0.0001 |
| CCAGCGAG | -0.128 |
| CCCGCTTC | 0.184 |
| ATCAATTC | -0.243 |
| GTTAAAAA | 0.0131 |
| AAGCCTAC | -0.138 |
| CACCGGGC | 0.0767 |
| AACCCACT | 0.0874 |
| GGGGGTGA | -0.296 |
